This is one part of the list. Shown are side measurements of this screen, not its main read-out; they come without a call.
Columns and labels:
Assay in all cases: Primary Screen for Target Class Profiling of Small Molecule Inhibitors of Methyltransferases
[1] = target: Glycine N-methyltransferase (Homo sapiens) (UniProt Q14749); settings: purified enzyme, MTase-Glo SAH luminescence; measured here: GNMT inhibition; at 40 µM; stronger effect = lower value
Procedure, shortened: (§1)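 Each enzyme was assayed with SAM and its substrate. SAH formation detected by MTase-Glo luminescence; single-point 40 uM screen[…].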

[2] = target: Guanidinoacetate N-methyltransferase (Homo sapiens) (UniProt Q14353); settings: purified enzyme, MTase-Glo SAH luminescence; measured here: GAMT inhibition; at 40 µM; stronger effect = lower value
Procedure, shortened: as §1

[3] = target: Histamine N-methyltransferase (Homo sapiens) (UniProt P50135); settings: purified enzyme, MTase-Glo SAH luminescence; measured here: HNMT inhibition; at 40 µM; stronger effect = lower value
Procedure, shortened: as §1

[4] = target: Nicotinamide N-methyltransferase (Homo sapiens) (UniProt P40261); settings: purified enzyme, MTase-Glo SAH luminescence; measured here: NNMT inhibition; at 40 µM; stronger effect = lower value
Procedure, shortened: as §1

[5] = target: Phenylethanolamine N-methyltransferase (Homo sapiens) (UniProt P11086); settings: purified enzyme, MTase-Glo SAH luminescence; measured here: PNMT inhibition; at 40 µM; stronger effect = lower value
Procedure, shortened: as §1
On the % scale 0 is the no-effect control and ±100 the full control effect.

Row | SMILES | activity change, negative = inhibition [1] [%] | activity change, negative = inhibition [2] [%] | activity change, negative = inhibition [3] [%] | activity change, negative = inhibition [4] [%] | activity change, negative = inhibition [5] [%]
1 | CN1C(=O)c2cc(C(=O)NCc3ccco3)nn2CC1(C)C(=O)NCc1ccc(F)cc1 (stereo not given) | 9.06 | 1.41 | 8.8 | 14.1 | 7.36
2 | CCC(CO)Nc1nc(NCc2ccccc2)c2ncn(C(C)C)c2n1 (stereo not given) | 6.3 | 12.5 | 16 | -11.8 | -0.36
3 | CC1CCN(S(=O)(=O)c2ccc3c(ccn3CC(=O)NCCCc3ccccc3)c2)CC1 | 5.08 | 0 | 3.78 | 5.11 | 2.38
4 | O=C(NCc1ccccc1)c1ccccc1OC1CN(C2CCC2)C1 | -3.28 | 0.958 | -15.8 | -7.69 | -3.97
5 | CC(C)(C)OCC1CN(Cc2cccs2)[S+](=O)([O-])c2cccnc2O1 (stereo not given) | -6.28 | -5.48 | -3.02 | -13.8 | -1.48
6 | O=C1c2cc3sccc3n2CC(C(=O)NC2CCCCCC2)(c2ccccc2)N1Cc1cccc(F)c1 (stereo not given) | 3.66 | 0 | 0.854 | 3.94 | -1.88
7 | COC(=O)[C@H](Cc1ccc(OC)cc1)NC(=O)[C@H]1CN(C(=O)c2ccc(N(C)C)cc2)CCN1C(=O)c1cccs1 | -7.34 | -5.89 | -4.7 | -12.5 | -9.55
8 | COc1ncccc1-c1nc(-c2c(C)noc2C)cc2c1cc(C)n2CCN(C)C | -4.17 | 2.36 | -17.5 | -13 | 8.42
9 | COCCn1nc2n(c1=O)CCN(Cc1ccc(Br)o1)CC2 | -4.78 | -2.07 | -1.06 | -14.7 | -9.72
10 | COC(=O)c1ncn2c1C(=O)N(Cc1ccc(OC)c(OC)c1)C(C)(C(=O)NC1CCCCCC1)C2 (stereo not given) | 1.38 | 0 | 2.82 | -10.8 | 2.59
11 | C#CC[C@H](c1nc2cc(Cl)ccc2c(=O)n1Nc1ccccc1)N(CCCN)C(=O)c1cccc(Cl)c1F | 1.55 | -9.61 | 4.32 | -34.4 | -8.32
12 | C/C(=C\C(=O)C(C)C1CCC2C3=C(CCC21C)C1(C)CCC(=O)C(C)(C)C1(O)CC3)C(C)(C)O (stereo not given) | 1.32 | 6.22 | 9.8 | -9.04 | -4.17
13 | Cc1nnc2n(-c3cccc(F)c3)c(=O)c3ccc(C(=O)NCc4ccc(Cl)cc4)cc3n12 | -4.6 | 4.49 | -0.696 | 4.23 | -5.43
14 | CC(C)OCCCNC(=O)c1cc(-c2cccc(C(F)(F)F)c2)c2cccn2n1 | -6.5 | -0.489 | -0.674 | -4.69 | 0.188
15 | CC(/C=C/C1(O)C(C)(C)CC(O)CC1(C)O)OC1OC(CO)C(O)C(O)C1O (stereo not given) | 3.22 | 6.43 | 5.98 | -5.54 | 7.58

— PubChem BioAssay AID1745853 (National Center for Advancing Translational Sciences (NCATS), 2022)
